The values below come from the antibiotic and cytotoxicity screens of Wong et al. (2023).

The list shows a part of the results.

The test system of one experiment is HSkMC. In words: cytotoxicity call (relative viability < 0.9). The conditions noted are these: 10 µM.
Another experiment deals with S. aureus RN4220. In words: growth inhibition call (relative growth <= 0.2). To be noted: 50 µM.

As to `C[C@@H]1CN([C@@H](C)CO)C(=O)c2cc(NS(=O)(=O)c3cn(C)cn3)ccc2O[C@@H](C)CCCCO[C@H]1CN(C)C`, the cytotoxicity call in the experiment with HSkMC was “inactive”. The growth inhibition call in the experiment on S. aureus RN4220 is “inactive”.
Turning to `C[C@@H]1CN([C@@H](C)CO)C(=O)c2cc(NC(=O)Nc3ccc(F)cc3)ccc2O[C@@H](C)CCCCO[C@@H]1CN(C)S(=O)(=O)c1ccc(F)cc1`, the cytotoxicity call with HSkMC is “inactive”. The growth inhibition call with S. aureus RN4220 was “inactive”.
Take `CC(C)=CCC/C(C)=C/CC/C(C)=C/CCC(=O)OC/C=C(\C)CCC=C(C)C`: in the experiment on HSkMC, the cytotoxicity call is “inactive”. Besides, the growth inhibition call in the experiment with S. aureus RN4220 was “inactive”.
With `C[C@@H](NC(=O)C[C@@H]1CC[C@@H](NC(=O)CN2CCOCC2)[C@@H](CO)O1)c1ccccc1`, the cytotoxicity call in the experiment with HSkMC was “inactive”. In the experiment with S. aureus RN4220, the growth inhibition call was “inactive”.
For `COc1ccccc1CNC(=O)C[C@H]1C[C@H]2c3cc(NC(=O)c4ccc5c(c4)OCO5)ccc3O[C@H]2[C@@H](CO)O1`, the cytotoxicity call with HSkMC was “inactive”. In addition, in the experiment with S. aureus RN4220, the growth inhibition call is “inactive”.
Regarding `C[C@H](CO)N1C[C@H](C)[C@@H](CN(C)S(=O)(=O)c2cn(C)cn2)Oc2c(NC(=O)Nc3ccccc3)cccc2C1=O`, the cytotoxicity call in the experiment with HSkMC was “inactive”. The growth inhibition call in the experiment on S. aureus RN4220 was “inactive”.
As for `O=C(C[C@H]1C[C@H]2c3cc(NS(=O)(=O)c4ccc(F)cc4)ccc3O[C@H]2[C@H](CO)O1)NCc1ccc(Oc2ccccc2)cc1`, the cytotoxicity call in the experiment with HSkMC was “inactive”. In the experiment with S. aureus RN4220, the growth inhibition call was “inactive”.
For `Cc1ccc(S(=O)(=O)N(C)C[C@H]2Oc3ccc(NC(=O)Nc4ccc(C(F)(F)F)cc4)cc3CC(=O)N([C@H](C)CO)C[C@@H]2C)cc1`, the cytotoxicity call with HSkMC was “active”. Moreover, the growth inhibition call in the experiment on S. aureus RN4220 is “inactive”.
For `C[C@H]1CCCCO[C@@H](CN(C)C(=O)Nc2ccc3c(c2)OCO3)[C@@H](C)CN([C@@H](C)CO)C(=O)c2cc(NC(=O)Nc3ccc(C(F)(F)F)cc3)ccc2O1` the same measures were “inactive” and “inactive”.
As for `CC1(C)CCC2(C(=O)O)CCC3(C)C(=CCC4C5(C)CCC(O)C(C)(CO)C5CCC43C)C2C1` (stereo not drawn), the cytotoxicity call in the experiment on HSkMC was “inactive”. Further, in the experiment on S. aureus RN4220, the growth inhibition call is “inactive”.
With `CC(=O)n1cc([C@@H]2C=C(C(=O)NCc3ccccc3)O[C@H](OCc3ccc(CO)cc3)C2)c2ccccc21`, in the experiment with HSkMC, the cytotoxicity call is “inactive”. Besides, in the experiment on S. aureus RN4220, the growth inhibition call is “inactive”.
Regarding `CC(C)CC#Cc1cnc2c(c1)C(=O)N([C@@H](C)CO)C[C@@H](C)[C@@H](CN(C)C(=O)c1ccc3c(c1)OCO3)O2`, the cytotoxicity call in the experiment on HSkMC is “inactive”. Moreover, the growth inhibition call in the experiment with S. aureus RN4220 is “inactive”.
Consider `COc1cccc(C#Cc2ccc3c(c2)O[C@H](CN(C)C(C)=O)[C@@H](C)CN([C@H](C)CO)S3(=O)=O)c1`, for which the cytotoxicity call with HSkMC was “inactive”. Besides, in the experiment on S. aureus RN4220, the growth inhibition call was “inactive”.
With `Cc1ccc2nc(Nc3ccccc3)nc(-c3ccccc3)c2c1`, the cytotoxicity call in the experiment with HSkMC is “inactive”. Further, the growth inhibition call with S. aureus RN4220 is “inactive”.
On to `COc1ccc(CN(C)C[C@H]2OCCCC[C@@H](C)Oc3ccc(NC(=O)c4ccncc4)cc3C(=O)N([C@@H](C)CO)C[C@@H]2C)cc1`, for which the cytotoxicity call in the experiment with HSkMC is “inactive”. In addition, the growth inhibition call with S. aureus RN4220 is “inactive”.
Consider `C[C@H](CO)N1C[C@H](C)[C@H](CN(C)CC2CC2)OCCCC[C@H](C)Oc2ccc(NC(=O)Nc3ccc(F)cc3)cc2C1=O`, for which the cytotoxicity call in the experiment with HSkMC is “inactive”. The growth inhibition call in the experiment with S. aureus RN4220 is “inactive”.
Consider `C[C@H]1CN([C@@H](C)CO)S(=O)(=O)c2ccc(C#Cc3cccnc3)cc2O[C@H]1CN(C)CC1CCOCC1`, for which the cytotoxicity call in the experiment on HSkMC is “inactive”. In addition, in the experiment on S. aureus RN4220, the growth inhibition call was “inactive”.
On to `COCCOC(=O)N1C(=O)[C@@]2(c3ccccc31)[C@H](C(=O)N1CCCCCCC1)[C@H]1C(=O)O[C@H](c3ccccc3)[C@H](c3ccccc3)N1[C@@H]2c1ccccc1OCCO`, for which the cytotoxicity call in the experiment with HSkMC is “inactive”. Further, the growth inhibition call in the experiment on S. aureus RN4220 is “inactive”.
Turning to `C[C@H]1CCCCO[C@H](CN(C)Cc2ccc3c(c2)OCO3)[C@@H](C)CN([C@@H](C)CO)C(=O)c2cc(NC(=O)Nc3ccc4c(c3)OCO4)ccc2O1`, in the experiment with HSkMC, the cytotoxicity call is “inactive”. In the experiment with S. aureus RN4220, the growth inhibition call was “inactive”.
Take `C[C@@H]1CCCCO[C@@H](CN(C)Cc2ccc(C(=O)O)cc2)[C@H](C)CN([C@H](C)CO)C(=O)c2cc(NC(=O)Nc3ccccc3)ccc2O1`: the cytotoxicity call in the experiment with HSkMC was “inactive”. In addition, the growth inhibition call in the experiment with S. aureus RN4220 is “inactive”.
`COc1ccc(C#Cc2ccc3c(c2)O[C@H](CN(C)C(=O)c2ccccn2)[C@@H](C)CN([C@@H](C)CO)S3(=O)=O)cc1`: the cytotoxicity call with HSkMC was “inactive”. For the same compound, the growth inhibition call in the experiment with S. aureus RN4220 is “inactive”.
As to `CN(C)CCCN1C(=O)[C@@H]2[C@@H](C1=O)[C@@H]1C=C[C@@H]2C1`, in the experiment on HSkMC, the cytotoxicity call is “inactive”. Also, the growth inhibition call in the experiment on S. aureus RN4220 is “inactive”.
For the compound `COc1ccc(CN(C)C[C@@H]2Oc3c(NC(=O)c4cnccn4)cccc3C(=O)N([C@@H](C)CO)C[C@H]2C)cc1`, in the experiment on HSkMC, the cytotoxicity call was “inactive”. For the same compound, the growth inhibition call in the experiment with S. aureus RN4220 was “inactive”.
With `O=c1/c(=C\c2ccc(F)cc2)sc2n1CCN=2`, in the experiment with HSkMC, the cytotoxicity call was “inactive”. Besides, in the experiment on S. aureus RN4220, the growth inhibition call is “inactive”.
Take `C[C@@H]1CN([C@@H](C)CO)C(=O)c2cccc(NC(=O)Nc3ccc(F)cc3)c2O[C@H]1CN(C)C(=O)Nc1ccc(C(F)(F)F)cc1`: the cytotoxicity call in the experiment on HSkMC is “inactive”. The growth inhibition call with S. aureus RN4220 was “inactive”.
Turning to `O=C(Nc1cccc2cccnc12)[C@@H]1[C@H](c2ccc(-c3ccccc3)cc2)CC(=O)N1C(=O)OCc1ccccc1`, the cytotoxicity call in the experiment on HSkMC (human skeletal muscle cells) was “inactive”. For the same compound, in the experiment with S. aureus RN4220, the growth inhibition call was “inactive”.
`C[C@H](CO)N1C[C@H](C)[C@@H](CN(C)S(C)(=O)=O)OCCCC[C@H](C)Oc2ccc(NC(=O)c3ccncc3)cc2C1=O`: the cytotoxicity call with HSkMC was “inactive”. For the same compound, the growth inhibition call in the experiment on S. aureus RN4220 was “inactive”.
With `Cc1ccc(S(=O)(=O)N(C)C[C@@H]2Oc3ccc(NS(=O)(=O)c4cn(C)cn4)cc3CC(=O)N([C@H](C)CO)C[C@H]2C)cc1`, in the experiment with HSkMC, the cytotoxicity call is “inactive”. In addition, the growth inhibition call with S. aureus RN4220 was “inactive”.
As to `C[C@@H]1CN([C@H](C)CO)C(=O)c2cc(NC(=O)C3CC3)ccc2O[C@@H]1CN(C)S(=O)(=O)c1cn(C)cn1`, the cytotoxicity call in the experiment with HSkMC was “inactive”. Also, in the experiment on S. aureus RN4220, the growth inhibition call is “inactive”.
